Reference: US11365205B2 (Aurigene Discovery Technologies Limited, priority 2018, dated 2022)

Molecular target: PRMT5/MEP50 Complex (Homo sapiens (Human), UniProt O14744)
Assay: PRMT5 inhibition based on TR-FRET assay
Format: biochemical
Conditions: 32 nM PRMT5:MEP50, 50 nM Histone-H4 peptide, 1 μM SAM
Description: PRMT5 Inhibition Based on TR-FRET Assay:
Protein arginine methyltransferase 5 (PRMT5) is a type II arginine methyltransferase that catalyze mono- and symmetric demethylation on arginine residues of histone or non-histone proteins in presence of S-adenosylmethionine (AdoMet or SAM) a cofactor responsible for donating the methyl group. PRMT5 is reported to be overexpressed in several human cancers. To identify compounds that inhibit the PRMT5 and decrease its activity, a TR-FRET based assay has been established. Time-resolved fluorescence resonance energy transfer (TR-FRET) HTS assays are homogeneous proximity assays where the interaction of two dye-labeled binding partners is detected by the energy transfer between a donor and an acceptor dye and the subsequent light emission by the acceptor dye. PRMT5 catalyzes Histone H4 peptide which is biotin tagged to the Lysine amino acid at carboxyl end, in presence of S-adenosyl-1-methionine (SAM) to methylate the peptide. The antibody specific to mono methylated H4 peptide (H4R3) with Ig conjugate binds to the methylated peptide, indirectly binding to the Europium lanthanide. […]
The compound dilutions were prepared as 7.5% DMSO stock solutions in assay buffer. […] The plates were then read on Victor-3 with Excitation at 340 nm and Emissions collected at 615 and 665 nm in TR-FRET protocol. […]

Chain of UniProt O14744 (O14744 whole entry): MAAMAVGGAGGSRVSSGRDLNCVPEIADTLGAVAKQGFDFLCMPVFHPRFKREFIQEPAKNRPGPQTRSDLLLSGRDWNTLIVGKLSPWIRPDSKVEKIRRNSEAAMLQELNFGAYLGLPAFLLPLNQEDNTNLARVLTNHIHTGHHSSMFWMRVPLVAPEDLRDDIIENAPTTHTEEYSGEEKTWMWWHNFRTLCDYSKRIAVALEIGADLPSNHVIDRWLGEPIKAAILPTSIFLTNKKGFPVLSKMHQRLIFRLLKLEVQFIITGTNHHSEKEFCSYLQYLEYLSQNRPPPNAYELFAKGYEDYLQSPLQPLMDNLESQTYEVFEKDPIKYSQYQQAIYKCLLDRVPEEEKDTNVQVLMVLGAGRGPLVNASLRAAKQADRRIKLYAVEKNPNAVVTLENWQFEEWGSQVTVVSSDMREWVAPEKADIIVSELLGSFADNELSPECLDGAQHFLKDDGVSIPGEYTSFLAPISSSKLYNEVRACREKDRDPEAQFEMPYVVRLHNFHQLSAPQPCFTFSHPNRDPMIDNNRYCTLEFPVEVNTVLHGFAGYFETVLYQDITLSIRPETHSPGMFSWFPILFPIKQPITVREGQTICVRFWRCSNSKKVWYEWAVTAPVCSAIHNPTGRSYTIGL
Chain of UniProt O14744 (Q9BQA1 whole entry partner): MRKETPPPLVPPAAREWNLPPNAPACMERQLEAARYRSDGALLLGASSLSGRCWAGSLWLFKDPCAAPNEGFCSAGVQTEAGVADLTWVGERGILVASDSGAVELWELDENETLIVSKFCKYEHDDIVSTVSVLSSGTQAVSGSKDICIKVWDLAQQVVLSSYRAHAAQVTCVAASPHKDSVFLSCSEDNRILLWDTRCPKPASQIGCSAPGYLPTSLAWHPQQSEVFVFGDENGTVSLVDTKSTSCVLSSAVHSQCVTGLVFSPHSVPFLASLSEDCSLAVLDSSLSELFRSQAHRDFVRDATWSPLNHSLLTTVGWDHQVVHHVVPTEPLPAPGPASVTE

IC50 [nM]	Structure (SMILES)
190	N#Cc1ccc(CN2C(=O)CN(CC(O)CN3CCc4ccccc4C3)C2=O)cc1 (centres unmarked) [Example 23, 4-((3-(3-(3,4-dihydroisoquinolin-2(1H)-yl)-2-hydroxypropyl)-2,5-dioxoimidazolidin-1-yl)methyl)benzonitrile]
220	CCc1ccc(CN2CCN(CC(O)CN3CCc4ccccc4C3)C2=O)cn1 (centres unmarked) [Example 27, 1-(3-(3,4-dihydroisoquinolin-2(1H)-yl)-2-hydroxypropyl)-3-((6-ethylpyridin-3-yl)methyl)imidazolidin-2-one]
